# Test results reported in PubChem BioAssay AID504832 (National Center for Advancing Translational Sciences (NCATS), 2011).
# In all, about 310,000 compounds went through this assay and about 18,000 (5.8%) were called active. This list was built around the results that the source calls inconclusive (neither active nor inactive); the mix of calls is not that of the screen. Calls follow the shape of the dose curve; as a rule, active = well fitted inhibition curve with a large enough effect; inconclusive = small, poorly fitted or top-dose-only effect, or another doubt; inactive = no such curve, though single readings can be large or run the other way. Potencies of inconclusive entries are left out as doubtful fits.
# Assay: Primary qHTS for delayed death inhibitors of the malarial parasite plastid, 48 hour incubation
# Conditions: P. falciparum luciferase growth in erythrocytes; series mostly up to 28.7 µM
# Procedure, shortened: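 Luciferase-expressing parasites in RBCs, 2% Hct / 0.1% parasitemia final; RPMI 1640 + 0.5% Albumax; 37 C, 5% CO2, one generation; luminescence read-out, lower signal = inhibition.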
# % is scaled to controls: 0 for no effect and ±100 for the full control effect; potency is read from the fitted curve at half-maximal effect; tags tell the direction and shape of the fitted curve.
Compound,Potency,"activity change, negative = inhibition"
O=S(=O)(Cc1ccc(Cl)cc1)NCc1ccc2c(c1)OCO2,inactive,
Cc1ccc(-c2noc(CSc3nnc(Cc4ccccc4)n3-c3cccc(C)c3)n2)cc1,"inconclusive [inhibitor, single point]",
O=C(CNC(=O)c1ccco1)Nc1cc(Cl)ccc1N1CCOCC1,"inconclusive [inhibitor, single point]",
COC(=O)CCc1sc(Nc2ccccc2)nc1-c1ccc(OC)cc1,inactive,
O=C(NC1=NCCS1)C12CC3CC(CC(C3)C1)C2,"inconclusive [inhibitor, single point]",
Cc1ccc(OCC(=O)Nc2ccc(S(=O)(=O)Nc3cc(C)nc(C)n3)cc2)c(C)c1,"inconclusive [inhibitor, single point]",
Cc1ccccc1CN1CCN(CC2CC2)CC1CCO (configuration not stated),inactive,
COc1ccc2c(c1)N(C[C@@H](C)CN(C)C)c1ccccc1S2,"inconclusive [inhibitor, single point]",
CN1CCc2c(sc(NC(=O)C3CCCN3S(=O)(=O)c3ccc(Cl)s3)c2C(N)=O)C1 (configuration not stated),"inconclusive [inhibitor, single point]",
O=C1Nc2cc(C(=O)N3CCC(N4CCCCC4)CC3)ccc2S/C1=C\c1ccccc1,"inconclusive [inhibitor, single point]",
Cn1cnc([N+](=O)[O-])c1Sc1nnc(-c2cccnc2)n1C,"inconclusive [inhibitor, single point]",
Fc1ccc(C2Nc3cccc4cccc(c34)N2)cc1,"inconclusive [inhibitor, single point]",
CCOC(=O)Cc1c(C)c2ccc(N(CC)CC)cc2oc1=O,active: 3.7 µM,
COc1cc(/C=N/n2c(SC)nnc(C(C)(C)C)c2=O)ccc1O,inactive,
COc1ccc(C(=O)N2CCN(C(=O)c3ccco3)CC2)cc1,inactive,
O=C(Nc1ccc(F)cc1F)c1c(C(F)(F)F)ccnc1Oc1cccc(C(F)(F)F)c1,active: 14.7 µM,
CCOc1ccc(OCCCC(=O)N2CCN(S(=O)(=O)c3ccc(Cl)cc3)CC2)cc1,inactive,
O=C(c1ccco1)N1CCN(C(c2ccc(Cl)cc2)c2nnnn2CC2CCCO2)CC1 (configuration not stated),"inconclusive [inhibitor, partial curve, poor fit]",
CC(=O)c1ccc(N/N=C(/C(N)=O)C2=NC(C)(C)Cc3ccccc32)cc1,"inconclusive [inhibitor, single point]",
CC1CCN(Cc2ccc(-c3nnn(CC(=O)Nc4ccccc4Cl)n3)cc2)CC1,"inconclusive [inhibitor, single point]",
COc1ccccc1N1CCN(C(=O)COc2cc(C)cc3oc(=O)cc(C)c23)CC1,inactive,
COc1ccc(N2CCN(S(=O)(=O)CCNC(=O)C34CC5CC(CC(C5)C3)C4)CC2)cc1,"inconclusive [inhibitor, partial curve]",
Cc1ccccc1OCc1nnc(SCCN2CCCC2)n1-c1ccccc1,"inconclusive [inhibitor, single point]",
CCOC(=O)N1CCN(C(=O)Nc2ccc3nccnc3c2)CC1,"inconclusive [inhibitor, partial curve, poor fit]",

Compound,Potency,"activity change, negative = inhibition"
CCCc1nc2oc3c(NCCCN(C)C)ncnc3c2c2c1CCCC2,active: 9.28 µM,
O=c1oc2ccccc2c(O)c1CN1CCCCC1,inactive,
COc1ccc(CCNC(=O)c2cc3c(=O)n4cccc(C)c4nc3n(CCCN3CCOCC3)c2=N)cc1,"inconclusive [inhibitor, full curve]",
CC(Oc1ccc2c3c(c(=O)oc2c1)CCC3)C(=O)NC1CCN(Cc2ccccc2)CC1 (configuration not stated),"inconclusive [inhibitor, single point]",
COc1ccc(C(O)c2ncc(C(F)(F)F)cc2Cl)cc1 (configuration not stated),inactive,
CC[N+]1(CC)CC2=Cc3c(ccc4ccccc34)C(C)C2C1 (configuration not stated),active: 2.33 µM,
CCOCCCNC(=S)N1C2CCC1CC(NC(=O)NC1CCCCC1)C2 (configuration not stated),"inconclusive [inhibitor, partial curve, poor fit]",
C[C@H](NC(=O)[C@@H]1CSC2c3ccccc3C(=O)N21)C(=O)NC1CCCCC1 (some centres not stated),inactive,
Cc1nc(SCc2ccc(O)c([N+](=O)[O-])c2)n[nH]1,inactive,
Cc1nc(-c2ccccc2)sc1-c1nc(-c2ccccc2)ncc1S(=O)(=O)c1ccccc1,"inconclusive [inhibitor, full curve]",
O=C(O)C1CCC(CNS(=O)(=O)c2ccccc2)CC1 (configuration not stated),,inactive: 6.24% [at 0.00184 µM]
Cn1nccc1C(=O)Nc1ccc2c(c1)OCO2,inactive,
O=C(NC1CCCc2c1cnn2-c1ccccc1F)c1ccccc1N1CCOCC1 (configuration not stated),"inconclusive [inhibitor, single point]",
CCOC(=O)C1CCCN(c2c(Nc3ccc(C)c(C)c3)c(=O)c2=O)C1 (configuration not stated),active: 8.28 µM,
CCC1Sc2ccccc2N(CC(=O)NCCC(C)C)C1=O (configuration not stated),"inconclusive [inhibitor, single point]",
CCn1cc(C(=O)NC2CCCCCC2)c(=O)c2ccc(C)nc21,"inconclusive [inhibitor, single point]",
Cc1ccc(Nc2nc(N)nc(CCl)n2)c(C)c1,"inconclusive [inhibitor, single point]",
Cc1cccc(OCC(=O)N/N=C\c2cn(C)c3ccccc23)c1,"inconclusive [inhibitor, single point]",
CN(C)S(=O)(=O)c1ccc(C(=O)NN2C(=O)NC3(CCCCC3)C2=O)cc1,"inconclusive [inhibitor, single point]",
OC(COc1c(Cl)cc(Cl)cc1Cl)CN1CCCCC1 (configuration not stated),"inconclusive [inhibitor, single point]",
CCOc1ccc(C(=O)Nc2ccc(S(=O)(=O)N3CCOCC3)cc2)cc1OCC,"inconclusive [inhibitor, single point]",
O=C(NC(=S)Nc1cc([N+](=O)[O-])ccc1O)C1CC1,"inconclusive [inhibitor, single point]",
CCOC(=O)c1c(NC(=O)CSc2nc3ccc(OC)cc3[nH]2)sc2c1CC(C)(C)NC2(C)C,"inconclusive [inhibitor, full curve]",
CC(CCc1ccccc1)NC(=O)c1ccc(NC(=O)c2cccc(Br)c2)cc1 (configuration not stated),active: 14.7 µM,

Compound,Potency,"activity change, negative = inhibition"
Cc1c(C(=O)OC(C)C)[nH]c2c1C(=O)CC(C)(C)C2,inactive,
N#CC(c1ccccn1)c1ncc(C(F)(F)F)cc1Cl (configuration not stated),inactive,
COc1cc(NC(=O)c2ccc(Br)o2)c(C(=O)O)cc1OC,inactive,
CCOC(=O)CCSc1nc(C)c2cc(OC)ccc2n1,inactive,
CCN1CCCC1CN(Cc1cc2ccc(C)c(C)c2[nH]c1=O)C(=O)Nc1ccccc1OC (configuration not stated),inactive,
Cc1cccc(NC(=O)c2cc(-c3cc(C)cc(C)c3O)n[nH]2)c1,"inconclusive [inhibitor, single point]",
Cc1cc(Br)ccc1NC(=S)Nc1cccc([N+](=O)[O-])c1,inactive,
CN(Cc1ccccc1)C(=O)c1[nH]cnc1C(=O)Nc1ccon1,inactive,
CC(=O)CCc1ccc(OCCCCN2CCC(Cc3ccccc3)CC2)cc1,"inconclusive [inhibitor, single point]",
CC(C)(C)OC(=O)NCCCCCc1nnc(SCC(N)=O)o1,inactive,
O=C(NN1C(=O)c2ccccc2NC1c1ccccn1)c1ccccc1 (configuration not stated),inactive,
O=C(NCc1nc2ccccc2[nH]1)C1=C[C@H](c2coc3ccccc3c2=O)C[C@H](OCc2ccc(CO)cc2)O1,"inconclusive [inhibitor, partial curve]",
CC(C)Sc1nc2ccccc2n1CC(=O)NCc1ccc2c(c1)OCO2,"inconclusive [inhibitor, full curve]",
CCOC(=O)[C@H]1[C@H]2COc3ccc(OC)cc3[C@@H]2N2C(=O)c3cc(OC)c(OC)cc3NC(=O)[C@@]12C,active: 11.7 µM,
O=C(N/N=C/c1ccc([N+](=O)[O-])cc1)c1ccc2nc[nH]c2c1,"inconclusive [inhibitor, single point]",
COc1ccc(OCC(=O)N2CCCC(CO)(CCOc3ccccc3)C2)cc1 (configuration not stated),"inconclusive [inhibitor, single point]",
CC(=O)Oc1ccc(C(=O)[C@H]2[C@H]3C(=O)N(c4ccccc4)C(=O)[C@H]3[C@@H]3C=CC=NN32)cc1,inactive,
COc1ccc(/C=N/NC(=O)C(Cc2c[nH]c3ccccc23)NC(=O)OCC(C)C)cc1[N+](=O)[O-] (configuration not stated),inactive,
CCCCN(CC)CCNC(=O)Cn1cc2c(n1)-c1c(oc(C(=O)N3CCCC3)c1C)CC2,"inconclusive [inhibitor, single point]",
COc1ccccc1OCCNC(=O)c1ccc(C)c(S(=O)(=O)N2CCOCC2)c1,"inconclusive [inhibitor, partial curve]",
CN(C(=O)CSc1cn(CC(=O)N2CCOCC2)c2ccccc12)c1ccccc1,inactive,
O=c1[nH]c2cc3c(cc2cc1CN(Cc1cccs1)Cc1nnnn1Cc1ccco1)OCCO3,"inconclusive [inhibitor, single point]",
Cc1ccc(C(C(=O)NCc2ccco2)N(C(=O)Cc2cccs2)c2cccnc2)cc1 (configuration not stated),inactive,
Cc1ccc(C)c(CN2C(=O)C3CCCN3c3ccc(S(=O)(=O)N4CCOCC4)cc32)c1 (configuration not stated),active: 1.04 µM,
